Here are results for 31 compounds from the antibiotic and cytotoxicity screens of Wong et al. (2023).

This is one part of the list.

The subject of this test is HSkMC (human skeletal muscle cells). Briefly: cytotoxicity call (relative viability < 0.9). As to conditions: 10 µM.
Take `CCS(=O)(=O)NCC[C@H]1CC[C@@H](NS(=O)(=O)c2ccccc2C)[C@H](CO)O1`: the cytotoxicity call was “inactive”.

Take `C[C@@H]1CN([C@@H](C)CO)C(=O)Cc2cc(NS(=O)(=O)c3cn(C)cn3)ccc2O[C@@H]1CN(C)S(=O)(=O)c1cn(C)cn1`: the cytotoxicity call is “inactive”. As for `COc1ccc(S(=O)(=O)Nc2cccc3c2O[C@@H](CN(C)Cc2ccc(-c4ccccc4)cc2)[C@@H](C)CN([C@@H](C)CO)C3=O)cc1`, the entry is “inactive”; as for `CC(C)=CCC/C(C)=C/CC1=C(C)C(=O)c2ccccc2C1=O`, “inactive”. For the compound `CN1C(=O)Cc2ccccc2C1=O`, the cytotoxicity call was “inactive”.

As to `CO[C@@H](CN(C)C(=O)c1ccc2c(c1)OCO2)[C@H](C)CN([C@@H](C)CO)S(=O)(=O)c1ccc(Cl)cc1`, the cytotoxicity call was “inactive”.

For `CN(C)CCOC(C)(c1ccccc1)c1ccccn1.O=C(O)CCC(=O)O` (stereo unspecified), the cytotoxicity call is “inactive”. In the case of `O=C(O)[C@@H]1C[C@H](C(F)(F)F)CN1` it was “inactive”. In the case of `COc1ccc(S(=O)(=O)N(C)C[C@H]2Oc3ccc(NS(=O)(=O)c4ccccc4)cc3CC(=O)N([C@@H](C)CO)C[C@H]2C)cc1`, the cytotoxicity call is “inactive”. As for `Cc1noc(C)c1NC(=O)Nc1ccc2c(c1)C(=O)N([C@H](C)CO)C[C@H](C)[C@@H](CN(C)C(=O)Nc1cccc3ccccc13)O2`, the entry is “inactive”; as for `C[C@@H]1CN([C@H](C)CO)C(=O)c2cc(NC(=O)c3ccncc3)ccc2O[C@@H](C)CCCCO[C@H]1CN(C)S(=O)(=O)c1cn(C)cn1`, “inactive”; as for `C[C@H](CO)N1C[C@H](C)[C@@H](CN(C)Cc2ccc(Cl)c(Cl)c2)OCCCC[C@H](C)Oc2ccc(NC(=O)Nc3ccccc3)cc2C1=O`, “inactive”. On to `CC(C)NC(=O)N(C)C[C@@H]1Oc2cc(C#Cc3cccc(F)c3)ccc2S(=O)(=O)N([C@@H](C)CO)C[C@H]1C`, for which the cytotoxicity call was “inactive”.

Take `C[C@H](CO)N1C[C@H](C)[C@@H](CN(C)Cc2ccc(C(F)(F)F)cc2)OCCCC[C@H](C)Oc2ccc(NC(=O)Nc3cccc4ccccc34)cc2C1=O`: the cytotoxicity call was “inactive”. As for `COCC(=O)N(C)C[C@@H]1Oc2cc(C#Cc3cccnc3)ccc2S(=O)(=O)N([C@@H](C)CO)C[C@H]1C`, the cytotoxicity call was “inactive”. Take `N[C@@H]1CC[C@H](CCn2cc(C3CC3)nn2)O[C@@H]1CO`: the cytotoxicity call is “inactive”. For `CN(C)CCCN1c2ccccc2Sc2ccccc21.Cl`, the cytotoxicity call was “inactive”. Regarding `O=C(NO)c1cccc(C(=O)N/N=C/[C@H](O)[C@@H](O)[C@H](O)[C@H](O)CO)c1`, the cytotoxicity call was “inactive”. In the case of `C[C@H]1CN([C@@H](C)CO)C(=O)c2cc(NC(=O)C3CC3)ccc2O[C@H]1CN(C)S(=O)(=O)c1ccccc1` it was “inactive”; in that of `Cc1noc(C)c1S(=O)(=O)N(C)C[C@H]1OCCCC[C@H](C)Oc2ccc(N(C)C)cc2C(=O)N([C@@H](C)CO)C[C@@H]1C`, “inactive”. As for `Cc1ccc(S(=O)(=O)Nc2ccc3c(c2)CC(=O)N([C@@H](C)CO)C[C@@H](C)[C@@H](CN(C)C(=O)Nc2ccc(C(F)(F)F)cc2)O3)cc1`, the entry is “inactive”; as for `Cc1noc(C)c1S(=O)(=O)N(C)C[C@H]1OCCCC[C@@H](C)Oc2ccc(NC(=O)Nc3ccccc3)cc2C(=O)N([C@H](C)CO)C[C@@H]1C`, “inactive”. Consider `COc1ccc2c3c([nH]c2c1)[C@H](CO)N(C[C@]13CCN(CC1)S(=O)(=O)c1ccccc1)C(=O)c1cnccn1`, for which the cytotoxicity call is “inactive”. In the case of `COCC#Cc1cnc2c(c1)C(=O)N([C@H](C)CO)C[C@H](C)[C@@H](CN(C)S(=O)(=O)c1cn(C)cn1)O2` it was “inactive”; in that of `C[C@H]1CN([C@@H](C)CO)C(=O)c2cccc(NC(=O)Nc3cccc4ccccc34)c2O[C@H]1CN(C)C(=O)Nc1ccc(C(F)(F)F)cc1`, “active”.

As to `COc1ccc(CN(C)C[C@@H]2OCCCC[C@@H](C)Oc3ccc(NS(=O)(=O)c4ccc(Cl)cc4)cc3C(=O)N([C@@H](C)CO)C[C@@H]2C)cc1`, the cytotoxicity call is “inactive”.

In the case of `COC(=O)c1cn(CC(=O)Nc2ccon2)nn1`, the cytotoxicity call is “inactive”. Consider `CN1CCN(S(=O)(=O)c2ccc(CN)cc2)CC1`, for which the cytotoxicity call was “inactive”. For the compound `Cc1ccc(S(=O)(=O)N(C)C[C@@H]2OCCCC[C@H](C)Oc3ccc(NC(=O)Nc4ccc5c(c4)OCO5)cc3C(=O)N([C@@H](C)CO)C[C@H]2C)cc1`, the cytotoxicity call is “inactive”.

For the compound `C[C@H]1CC/C=C\[C@H]2O[C@@]34C=CCN(CCN5CCOCC5)C(=O)[C@H]3N(CCO)C(=O)[C@@H]4[C@@H]2C(=O)O1`, the cytotoxicity call was “inactive”. Turning to `CO[C@H]1CN(C)C(=O)c2cc(NC(=O)C3CC3)ccc2OC[C@@H](C)N(C(=O)Cc2ccccn2)C[C@H]1C`, the cytotoxicity call is “inactive”.
